This is one part of the list.
Tests used:
[1] = system: HSkMC (human skeletal muscle cells); experiment: cytotoxicity call (relative viability < 0.9); conditions: 10 µM
[2] = system: HepG2; experiment: cytotoxicity call (relative viability < 0.9); conditions: 10 µM
[3] = system: S. aureus RN4220; experiment: growth inhibition call (relative growth <= 0.2); conditions: 50 µM

SMILES | cytotoxicity call [1] | cytotoxicity call [2] | growth inhibition call [3]
Oc1cccc(-c2nc3ccc4ccccc4c3c3c2CCC3)c1 | inactive | inactive | inactive
NC(=O)NC[C@H](N)C(=O)O | inactive | inactive | inactive
C[C@@H]1CN([C@H](C)CO)C(=O)Cc2cc(NC(=O)NC3CCCCC3)ccc2O[C@@H]1CN(C)S(=O)(=O)c1cn(C)cn1 | inactive | inactive | inactive
C[C@@H]1CN([C@H](C)CO)C(=O)c2cc(-c3ccncc3)cnc2O[C@H]1CN(C)S(=O)(=O)c1ccccc1 | inactive | inactive | inactive
C[C@@H]1CCCCO[C@H](CN(C)Cc2ccccc2)[C@H](C)CN([C@H](C)CO)C(=O)c2cc(NC(=O)C3CCCCC3)ccc2O1 | inactive | inactive | inactive
C[C@@H]1CCCCO[C@H](CN(C)C(=O)Nc2ccccc2)[C@H](C)CN([C@H](C)CO)C(=O)c2cc(NC(=O)Nc3ccc(C(F)(F)F)cc3)ccc2O1 | inactive | active | inactive
C[C@H](CO)N1C[C@H](C)[C@H](CN(C)C(=O)Nc2cccc3ccccc23)Oc2ccc(NC(=O)CCC(F)(F)F)cc2CC1=O | inactive | inactive | inactive
Cc1cn([C@H]2O[C@@H](CO)[C@H](O)[C@H]2F)c(=O)[nH]c1=O | inactive | inactive | inactive
COc1ccc2c3c([nH]c2c1)[C@@H](CO)N(C[C@]13CCN(CCc2ccccc2)CC1)C(=O)CN1CCOCC1 | inactive | inactive | inactive
C[C@@H]1CCCCO[C@@H](CN(C)S(C)(=O)=O)[C@H](C)CN([C@H](C)CO)C(=O)c2cc(NC(=O)Nc3ccc(C(F)(F)F)cc3)ccc2O1 | inactive | inactive | inactive
COc1ccc(S(=O)(=O)Nc2ccc3c(c2)C(=O)N([C@@H](C)CO)C[C@H](C)[C@@H](CN(C)S(C)(=O)=O)OCCCC[C@@H](C)O3)cc1 | inactive | inactive | inactive
COc1ccc(NC(=O)N(C)C[C@@H]2OCCCC[C@@H](C)Oc3ccc(NC(=O)Nc4c(C)noc4C)cc3C(=O)N([C@@H](C)CO)C[C@H]2C)cc1 | inactive | inactive | inactive
C[C@H]1CN([C@@H](C)CO)C(=O)Cc2cc(NC(=O)c3ccncc3)ccc2O[C@H]1CN(C)Cc1ccc(Oc2ccccc2)cc1 | inactive | inactive | inactive
C[C@@H]1CN([C@@H](C)CO)S(=O)(=O)c2ccc(C#Cc3ccccc3)cc2O[C@@H]1CN(C)C(=O)Cc1ccccn1 | inactive | inactive | inactive
COc1ccc(NC(=O)N(C)C[C@@H]2OCc3cnnn3CCCC(=O)N([C@H](C)CO)C[C@H]2C)c(OC)c1 | inactive | inactive | inactive
C[C@@H]1CCCCO[C@@H](CN(C)C(=O)Nc2ccccc2)[C@H](C)CN([C@H](C)CO)C(=O)c2cc(NC(=O)Nc3ccccc3)ccc2O1 | inactive | inactive | inactive
C[C@@H]1CCCCO[C@H](CN(C)Cc2ccc(Cl)c(Cl)c2)[C@H](C)CN([C@@H](C)CO)C(=O)c2cc(NS(C)(=O)=O)ccc2O1 | inactive | active | inactive
C[C@H]1CCCCO[C@H](CN(C)Cc2ccc3c(c2)OCO3)[C@@H](C)CN([C@@H](C)CO)C(=O)c2cc(NS(=O)(=O)c3cccs3)ccc2O1 | inactive | inactive | inactive
C[C@@H]1CCCCO[C@@H](CN(C)S(=O)(=O)c2cccs2)[C@H](C)CN([C@@H](C)CO)C(=O)c2cc(NS(=O)(=O)c3cn(C)cn3)ccc2O1 | inactive | inactive | inactive
COc1ccc(NC(=O)Nc2ccc3c(c2)C(=O)N([C@@H](C)CO)C[C@@H](C)[C@@H](CN(C)C(=O)Nc2cccc4ccccc24)OCCCC[C@H](C)O3)cc1 | inactive | inactive | inactive
C[C@@H]1CN([C@H](C)CO)C(=O)c2cc(NC(=O)NC3CCCCC3)ccc2O[C@@H](C)CCCCO[C@@H]1CN(C)CC1CCCCC1 | inactive | inactive | inactive
COc1ccc(NC(=O)N(C)C[C@H]2OCCCC[C@H](C)Oc3ccc(NC(=O)NC4CCCCC4)cc3C(=O)N([C@@H](C)CO)C[C@H]2C)cc1 | inactive | inactive | inactive
C[C@@H]1CCCCO[C@@H](CN(C)S(=O)(=O)c2ccccc2)[C@@H](C)CN([C@H](C)CO)C(=O)c2cc(NS(C)(=O)=O)ccc2O1 | inactive | inactive | inactive
CCCNC(=O)C[C@H]1CC[C@H]2[C@@H](COC[C@@H](O)CN2S(=O)(=O)c2ccc(Oc3ccccc3)cc2)O1 | inactive | inactive | inactive

Reference: the antibiotic and cytotoxicity screens of Wong et al. (2023)
